Assay results as given in paper PMC4336329 (PLoS ONE, 2015).
Hit rate of the full screen: of about 310,000 compounds, about 2,200 (0.71%) showed an effect of 50% or more. The effect is printed as a negative number. Some of the results follow.

The molecules below were run against human ether-à-go-go-related gene (hERG) potassium channel (human, UniProt Q12809) (assay: primary screen, population patch clamp on CHO cells stably expressing hERG).
Sequence of human ether-à-go-go-related gene (hERG) potassium channel (Q12809 whole entry, looked up): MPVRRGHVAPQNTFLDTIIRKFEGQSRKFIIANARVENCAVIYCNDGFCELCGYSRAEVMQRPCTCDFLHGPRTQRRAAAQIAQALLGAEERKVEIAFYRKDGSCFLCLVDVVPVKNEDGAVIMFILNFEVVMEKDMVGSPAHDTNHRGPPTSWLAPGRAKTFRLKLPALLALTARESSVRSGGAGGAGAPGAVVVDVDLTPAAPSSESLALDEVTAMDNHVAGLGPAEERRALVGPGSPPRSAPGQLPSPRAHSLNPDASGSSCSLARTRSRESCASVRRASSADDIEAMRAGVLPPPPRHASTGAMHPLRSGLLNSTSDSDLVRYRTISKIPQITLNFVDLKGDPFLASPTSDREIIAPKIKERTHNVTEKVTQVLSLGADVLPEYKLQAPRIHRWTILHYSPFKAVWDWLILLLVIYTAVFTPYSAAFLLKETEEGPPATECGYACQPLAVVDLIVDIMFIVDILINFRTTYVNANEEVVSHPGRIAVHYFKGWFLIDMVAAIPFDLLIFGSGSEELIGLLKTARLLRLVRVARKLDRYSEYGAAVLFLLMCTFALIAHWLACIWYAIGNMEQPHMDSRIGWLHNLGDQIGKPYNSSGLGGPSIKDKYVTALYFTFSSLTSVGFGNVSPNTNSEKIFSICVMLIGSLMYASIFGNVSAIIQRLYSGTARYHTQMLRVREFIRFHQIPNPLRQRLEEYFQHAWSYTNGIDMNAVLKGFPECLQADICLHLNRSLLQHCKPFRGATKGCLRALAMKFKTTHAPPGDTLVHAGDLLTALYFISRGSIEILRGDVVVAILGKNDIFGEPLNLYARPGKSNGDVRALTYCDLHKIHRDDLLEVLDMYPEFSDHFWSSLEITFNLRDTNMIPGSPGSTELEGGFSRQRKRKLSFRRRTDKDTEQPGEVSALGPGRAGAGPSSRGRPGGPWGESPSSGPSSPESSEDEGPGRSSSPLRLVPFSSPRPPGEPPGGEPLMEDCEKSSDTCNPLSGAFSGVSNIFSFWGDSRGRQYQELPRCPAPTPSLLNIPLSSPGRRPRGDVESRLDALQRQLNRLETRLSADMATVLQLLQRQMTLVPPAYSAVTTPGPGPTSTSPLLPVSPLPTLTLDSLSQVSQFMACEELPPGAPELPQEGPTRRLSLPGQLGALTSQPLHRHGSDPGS

Structure (SMILES) | hERG current change (%, negative = inhibition) at 1uM
CCOC(=O)C1=C(Cc2ccc(F)cc2)C(=O)c2ccccc2C1=O | 6.27%
COc1ccc(OC)c(N/C(C)=C/C(=O)c2ccc(Br)cc2)c1 | 3.82%
COc1cccc(CNc2nnnn2C)c1 | 12%
CC(=O)Nc1cccc(NC(=O)c2ccc(C(=O)Nc3cccc(NC(C)=O)c3)nc2)c1 | 17.5%
CC(=O)c1ccc(C)cc1OC(=O)c1cccc(F)c1 | 16.4%
Cc1cc(C)c(/C=C(\C#N)C(N)=S)c(C)c1 | 6.32%
O=C(c1ccc(-n2cccn2)cc1)N1CCc2c([nH]c3ccccc23)C1c1ccccn1 (centres unmarked) | 5.13%
Cc1ccc(C(=O)NNc2cc(=O)n(C)c(=O)n2C)cc1C | 3%
COc1cccc(NC(=O)c2sc3nc(N4CCOCC4)c4c(c3c2N)CCCC4)c1 | 13.7%
CC1Cc2cc(S(=O)(=O)N3CCC(C(=O)N(C)Cc4ccco4)CC3)ccc2N1C(=O)C1CCC1 (centres unmarked) | 9.84%
CC(=O)c1ccc(OCCCC(=O)NCCc2ccccc2)cc1 | 8.81%
Cc1ccc(C(=O)N/N=C/c2ccc(-c3cccc(Cl)c3)o2)cn1 | 9.42%
COc1ccc(-c2cc(C(=O)N3CCN(S(=O)(=O)c4ccccc4)CC3)[nH]n2)cc1 | 7.23%
Cc1nc(=O)c(-c2ccccc2)c(C)n1CCCCCC(=O)O | 13.7%
Cc1ccc(CN2C(=O)c3ccccc3Sc3ccc(C(=O)NCCN4CCOCC4)cc32)cc1 | 18.8%
CC(=O)c1cccc(NC(=O)c2ccc(Br)o2)c1 | -5.03%
Cc1ccc(C(=O)C2C(c3ccc(-c4ccccc4[N+](=O)[O-])o3)NC(=O)NC2(O)C(F)(F)F)cc1 (centres unmarked) | 4.51%
O=C(N/C(=C\c1cccnc1)C(=O)N1CCCCC1)c1cccc(Br)c1 | 8.59%
COc1cc2ccccc2cc1C(=O)NCC(c1cccs1)N(C)C (centres unmarked) | -0.172%
Cc1cnn(C(=S)NCc2ccco2)c1 | 6.08%
COc1ccc(-c2noc(CNS(=O)(=O)c3ccccc3)n2)cc1 | 12.5%
O=C(c1cc(-c2ccc(Cl)cc2)on1)N1CCCCCC1 | 7.56%
Cc1ccc(C(=O)N/C(=C\c2sccc2C)C(=O)NCc2ccncc2)cc1 | -1.07%

Structure (SMILES) | hERG current change (%, negative = inhibition) at 1uM
O=C(NCCN1CCOCC1)c1cc(-c2ccc(Br)cc2)on1 | -2.35%
COc1ccc(C2SC[C@@H](C(=O)O)N2C(C)=O)cc1 (some centres unmarked) | 7.05%
O=C(NCCN1CCOCC1)c1csc2c1CCCCC2 | 12.1%
Cc1cc(-n2c(C)cc(C(=O)CN3C(=O)NC4(CCCC4)C3=O)c2C)no1 | 5.19%
Cc1ccc(C)c(Cn2c(O)c(N=NC(=S)Nc3ccccc3F)c3ccccc32)c1 | 12.8%
O=C(COc1ccccc1Cl)NCCCNC(=O)c1ccccn1 | 13.4%
Cc1ccc(NC(=O)Cc2nc(CN(C)CC(=O)Nc3ccc(C)cc3)cs2)cc1 | 9.42%
Cc1cccc(NC(=O)NC2CC3CCC(C2)N3Cc2ccco2)c1 (centres unmarked) | -8.04%
Cc1ccc(CNC(=O)C2CCC(=O)N(C3CCCC3)C2)c(F)c1F (centres unmarked) | 16%
C1CCN=C(Nc2nc3c(s2)CCCC3)CC1 | 6.06%
Cc1nn(C)cc1C(C(=O)NC1CCCCC1)N(C(=O)Cc1cccs1)c1ccc(C(C)C)cc1 (centres unmarked) | -5.21%
COc1ccc(C2CN=NC23CCCc2ccccc2C3=O)cc1 (centres unmarked) | 13.1%
CN1C2Cc3c(n(C)c4ccccc34)C1CC=C2CO (centres unmarked) | 14.8%
COc1cccc([C@H](O)Cn2cc(-c3ccc(CON=C(C)C)cc3)nn2)c1 | 16.1%
Nc1c(C(=O)CSc2ncccn2)c(=O)[nH]c(=O)n1C1CC1 | 8.01%
COc1cccc(/C=C/C(=O)N2CC(C)OC(C)C2)c1OC (centres unmarked) | 13.3%
CCC(=O)Nc1sc2c(c1C(N)=O)CCN(C(C)=O)C2 | 15.2%
Cc1cc2ncn(CC(O)COc3cccc(C(=O)O)c3)c2cc1C (centres unmarked) | -12.6%
O=C1/C(=C/c2ccc(F)cc2)SC(=S)N1CCCC(=O)N1CCCCC1CCO (centres unmarked) | 10.3%
CCCNS(=O)(=O)c1cccc(C(=O)NC2CCCc3ccccc32)c1 (centres unmarked) | -15.6%
CCCc1nnc(NC(=O)CCC(=O)NCc2ccccc2OC)s1 | 23.2%
Cc1ccc(SCc2[nH]nc3c2C2(C(=O)Nc4ccc(F)cc42)C(C#N)=C(N)O3)cc1 (centres unmarked) | 6.88%
Cc1ccc(NC(=O)CSCC(=O)N2CCCc3ccccc32)cc1 | 5.83%

Structure (SMILES) | hERG current change (%, negative = inhibition) at 1uM
COc1ccc(S(=O)(=O)N/N=C\c2ccc3c(c2)OCO3)cc1 | -4.43%
CCS(=O)(=O)Nc1ccc(C2=NN(C(=O)c3ccco3)C(c3cccc(F)c3)C2)cc1 (centres unmarked) | 0.693%
O=C(CC(C(=O)N1CCc2ccccc21)n1ccnc1)NCC1CCCO1 (centres unmarked) | 9.19%
C1CCNCC1.N#CC1=C(N)Oc2cc(O)ccc2C1c1ccc2c(c1)OCO2 (centres unmarked) | 10.2%
Cl.O=[N+]([O-])c1ccc(CN2CCN(c3ccc4ccccc4n3)CC2)cc1 | -1.76%
O=C(C[n+]1ccc(C(=O)NCc2ccccc2)cc1)c1ccc2c(c1)OCCO2.[Br-] | 12.6%
O=C(C1CC1)N1CCc2cc(Br)cc(S(=O)(=O)NCc3ccc4c(c3)OCO4)c21 | -16.7%
O=C1OC(C(=O)O)Cc2ccccc21 (centres unmarked) | 4.48%
O=C(NCc1ccccc1)c1cc2ccc(O)cc2oc1=O | 28.9%
CCS(=O)(=O)C1=NSC2=NC(=O)/C(=C\c3ccc(OC(=O)c4ccco4)c(OC)c3)C(=N)N21 | 9.83%
O=C(CSc1ccc([N+](=O)[O-])cc1)NCC1CCCCC1 | -3.33%
O=C(NCCN1CCN(c2ccccc2Cl)CC1)Nc1ccccc1 | 10.1%
COC(=O)c1ccc(N)c(CS(=O)(=O)c2ccc(Cl)cc2)c1 | 10.4%
O=C(Nc1cccc(C(F)(F)F)c1)c1cc2c(s1)-c1ccccc1OC2 | -0.0218%
CCOC(=O)CN1C(=O)CCSc2ccc(Cl)cc21 | 16.9%
CCCC(C)NC(=O)c1cc(Cl)ccc1OC (centres unmarked) | -3.7%
Cc1ccc([N+](=O)[O-])cc1S(=O)(=O)Nc1ccc(C(=O)NCC2CCCO2)cc1 (centres unmarked) | 7.74%
O=C(NCC1OCCc2ccccc21)c1ccc(NC(=O)c2cccc(Br)c2)cc1 (centres unmarked) | 7.53%
Cc1[nH]c2ccc(C(=O)Nc3ccncc3)cc2c1C | 6.29%
O=C(O)/C=C/C(=O)NCCc1ccccc1 | 30%
O=C(COC(=O)CNS(=O)(=O)c1ccc(F)c(F)c1F)NC1CC1 | 5%
Cc1ccc(C)c(OCCC(=O)OCC(=O)NCc2ccc(F)cc2)c1 | -1.67%
O=C(CN1CCC(Cc2ccccc2)CC1)NC(=O)NCc1ccco1 | -1.19%

Structure (SMILES) | hERG current change (%, negative = inhibition) at 1uM
Nc1ccn(Cc2ccc(F)cc2)n1 | 5.46%
O=C(NCCc1cccs1)C1CC1 | 11.9%
Cc1c(-c2cccc(Cl)c2)nc2ccccc2c1C(=O)NC1CC1 | -3%
CS(=O)(=O)NCCCc1ccccc1 | 15.6%
Cc1cc(C)n2nc(C(=O)Nc3cccc(S(=O)(=O)N(C)c4ccccc4)c3)nc2n1 | -18.7%
CCOC(=O)c1ccc(NC(=O)c2nc[nH]c2C(=O)NCCCCNC(=O)c2[nH]cnc2C(=O)Nc2ccc(C(=O)OCC)cc2)cc1 | 16.5%
CC(C)CCNC(=O)c1cc2c(=O)[nH]c3ccccc3c2s1 | 12.8%
CNc1ccc(/C=C(\C#N)C(=O)Nc2ccccn2)cc1[N+](=O)[O-] | 16.3%
CCC1CN(C(=O)NCc2ccc(C)cc2)c2cc(C)ccc2O1 (centres unmarked) | 9.84%
CC(C)OC(=O)c1cc(NC(=O)c2nn(C)cc2Br)cc(C(=O)OC(C)C)c1 | 10.9%
Cc1cc(S(=O)(=O)N2CCN(c3c(C)cccc3C)CC2)ccc1F | -0.574%
COc1cccc(OC)c1C(=O)NC(=S)Nc1ccc(N2CCOCC2)c(Cl)c1 | 11.8%
Cc1c(C(=O)NC(C)c2ccccc2)c(-c2ccccc2)nn1-c1ccccc1 (centres unmarked) | 13%
Cc1nc(-c2cccs2)sc1C(=O)NN | 12.1%
Cc1cc(=O)oc2cc(NC(=O)c3ccccc3OC(F)F)ccc12 | 14.6%
CN(C)CCNC(=O)Cn1nc(C(F)F)cc1C1CC1 | 2.48%
CN1CCC(OC(=O)c2cc3cc(Cl)cc(Cl)c3oc2=O)CC1 | 7.84%
CC[N+](CC)(CC)CC(=O)Nc1c(C)cccc1C.[Br-] | 20.3%
COCCSc1ccccc1C(=O)Nc1ccc(Cl)cc1 | 7.92%
[O-]/C(=C(\C(=S)Nc1ccc(SC(F)F)cc1)[n+]1ccccc1)c1cc(Cl)ccc1Cl | -5.78%
